Assay results as given in the supplement of paper PMC4967469.
Lines with a small IC50 respond at low doses; a fit beyond the top or the lowest dose is shown as a bound at that dose. The AUC spans the tested range (256-fold, ending at the top dose) of the same fit: 1 means no effect, lower means more sensitive. For some assays here: A top dose marked as inferred was calculated from the reported fits. For some assays here: Where an entry number is given, a second screen of the drug exists; the two often differ.

Tests used:
Experiment in all cases: Viability of human cancer cell lines after 72 h of drug (GDSC screen)
[1] = compound: COc1cc(N2CCC(O)CC2)ccc1Nc1cc(Nc2ccccc2S(=O)(=O)C(C)C)c2cc[nH]c2n1 [MPS-1-IN-1]; conditions: top dose 20 µM; top dose inferred
Method: (§1)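 Human cancer cell lines in 384-well plates, medium with 10% serum, drug for 72 h over a 256-fold dose range (nine 2-fold or five 4-fold steps up to the top dose). Adherent lines were fixed and stained with the nucleic acid dye Syto60, suspension lines read with resazurin; signal relative to control wells, capped at 0 and 100%. One two-parameter sigmoid per drug and line, fitted in a mixed model over all curves with the slope shared within a line.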

[2] = compound: Nc1ccn([C@@H]2O[C@H](CO)[C@@H](O)[C@@H]2O)c(=O)n1 [Cytarabine]; conditions: top dose 2 µM
Method: as §1

[3] = compound: COc1cc(O)c2c(c1)/C=C/C[C@H](O)[C@H](O)C(=O)/C=C\C[C@H](C)OC2=O [(5Z)-7-Oxozeaenol]; conditions: top dose 10 µM; top dose inferred
Method: as §1

[4] = compound: Cc1ccc(F)c(NC(=O)Nc2ccc(-c3cccc4[nH]nc(N)c34)cc2)c1 [ABT-869]; conditions: top dose 1.024 µM; top dose inferred
Method: as §1

[5] = compound: COc1nc(C)cnc1NS(=O)(=O)c1cccnc1-c1ccc(-c2nnco2)cc1 [Zibotentan]; conditions: top dose 20 µM; top dose inferred
Method: as §1

[6] = compound: C[C@]1(c2nc3c(C(N)=O)cccc3[nH]2)CCCN1 [ABT-888]; conditions: top dose 5 µM; top dose inferred
Method: as §1

[7] = compound: O=c1cc(-c2cccc3c2Sc2ccccc2S3)oc(N2CCOCC2)c1 [KU-55933]; conditions: top dose 10 µM
Method: as §1

[8] = compound: Cc1cnc(-c2cnc(NCCNc3ccc(C#N)cn3)nc2-c2ccc(Cl)cc2Cl)[nH]1 [CHIR-99021]
Method: as §1

[9] = compound: COc1cc2ncnc(-n3nc(-c4ccccn4)nc3N)c2cc1OC [CP466722]; conditions: top dose 16 µM; top dose inferred
Method: as §1

[10] = compound: C/C=C(/C)C(=O)O[C@H]1C(C)=C2[C@H]([C@@H]1OC(=O)CCCCCCC)[C@@](C)(OC(C)=O)C[C@H](OC(=O)CCC)[C@@]1(O)[C@H]2OC(=O)[C@@]1(C)O [Thapsigargin]; conditions: top dose 0.512 µM; top dose inferred
Method: as §1

[11] = compound: C=CC(=O)Nc1cc(-n2c(=O)ccc3cnc4ccc(-c5cn[nH]c5)cc4c32)ccc1C [QL-X-138]; conditions: top dose 10.24 µM; top dose inferred
Method: as §1

[12] = compound: CCn1c(-c2nonc2N)nc2cnc(Oc3cccc(NC(=O)c4ccc(OCCN5CCOCC5)cc4)c3)cc21 [GSK269962A]; conditions: top dose 5 µM; screen: GDSC drug entry 1192; top dose inferred
Method: as §1

[13] = top dose 2.56 µM, screen: GDSC drug entry 154
[14] = top dose 10 µM, screen: GDSC drug entry 1241, top dose inferred

Cell Line | AUC [1] | IC50 [1] [µM] | AUC [2] | IC50 [2] [µM] | AUC [3] | IC50 [3] [µM] | AUC [4] | IC50 [4] [µM] | AUC [5] | IC50 [5] [µM] | AUC [6] | IC50 [6] [µM] | AUC [7] | IC50 [7] [µM] | AUC [8, 13] | IC50 [8, 13] [µM] | AUC [8, 14] | IC50 [8, 14] [µM] | AUC [9] | IC50 [9] [µM] | AUC [10] | IC50 [10] [µM] | AUC [11] | IC50 [11] [µM] | AUC [12] | IC50 [12] [µM]
SNU-449 (liver, adherent) | 0.967 | > 20 | 0.886 | > 2 | 0.748 | 3.48 | 0.971 | > 1.02 | 0.985 | > 20 | 0.986 | > 5 | 0.941 | > 10 | 0.949 | > 2.56 | 0.927 | > 10 | 0.789 | 7.78 | 0.302 | 0.0084 | 0.833 | 7.52 | 0.943 | > 5
SUIT-2 (pancreas, adherent) | 0.838 | 14.4 | 0.7 | 0.47 | 0.678 | 2.01 | 0.986 | > 1.02 | 0.979 | > 20 | 0.966 | > 5 | 0.986 | > 10 | 0.986 | > 2.56 | 0.973 | > 10 | 0.71 | 4.04 | 0.415 | 0.0184 | 0.884 | > 10.2 | 0.929 | > 5
SW13 (adrenal gland, adherent) | 0.988 | > 20 | 0.697 | 0.452 | 0.39 | 0.31 | 0.983 | > 1.02 | 0.988 | > 20 | 0.967 | > 5 | 0.962 | > 10 | 0.972 | > 2.56 | 0.986 | > 10 | 0.988 | > 16 | 0.343 | 0.0117 | 0.939 | > 10.2 | 0.855 | 4.07
SW756 (cervix, adherent) | 0.984 | > 20 | 0.68 | 0.442 | 0.464 | 0.488 | 0.98 | > 1.02 | 0.984 | > 20 | 0.984 | > 5 | 0.981 | > 10 | 0.984 | > 2.56 | 0.913 | > 10 | 0.985 | > 16 | 0.42 | 0.0185 | 0.884 | > 10.2 | 0.882 | > 5
SW780 (bladder, adherent) | 0.986 | > 20 | 0.829 | 1.4 | 0.642 | 1.61 | 0.986 | > 1.02 | 0.984 | > 20 | 0.983 | > 5 | 0.966 | > 10 | 0.982 | > 2.56 | 0.984 | > 10 | 0.97 | > 16 | 0.815 | 0.315 | 0.962 | > 10.2 | 0.938 | > 5
SW948 (large intestine, adherent) | 0.87 | > 20 | 0.834 | > 2 | 0.806 | 8.28 | 0.98 | > 1.02 | 0.974 | > 20 | 0.978 | > 5 | 0.982 | > 10 | 0.961 | > 2.56 | 0.98 | > 10 | 0.914 | > 16 | 0.917 | > 0.512 | 0.791 | 7.2 | 0.977 | > 5
SW1417 (large intestine, adherent) | 0.983 | > 20 | 0.952 | > 2 | 0.8 | 5.83 | 0.986 | > 1.02 | 0.986 | > 20 | 0.986 | > 5 | 0.978 | > 10 | 0.866 | > 2.56 | 0.971 | > 10 | 0.924 | > 16 | 0.419 | 0.0185 | 0.94 | > 10.2 | 0.963 | > 5
SW1573 (lung adenocarcinoma, adherent) | 0.979 | > 20 | 0.862 | > 2 | 0.679 | 2.37 | 0.981 | > 1.02 | 0.981 | > 20 | 0.977 | > 5 | 0.965 | > 10 | 0.956 | > 2.56 | 0.956 | > 10 | 0.872 | > 16 | 0.542 | 0.0434 | 0.892 | > 10.2 | 0.884 | > 5
SW1710 (bladder, adherent) | 0.935 | > 20 | 0.829 | 1.29 | 0.659 | 1.75 | 0.982 | > 1.02 | 0.976 | > 20 | 0.985 | > 5 | 0.907 | > 10 | 0.895 | > 2.56 | 0.879 | > 10 | 0.781 | 6.84 | 0.068 | < 0.002 | 0.69 | 2.23 | 0.688 | 1.07
SW1783 (glioma, adherent) | 0.989 | > 20 | 0.903 | > 2 | 0.608 | 1.2 | 0.983 | > 1.02 | 0.99 | > 20 | 0.991 | > 5 | 0.985 | > 10 | 0.99 | > 2.56 | 0.889 | 9.43 | 0.989 | > 16 | 0.287 | 0.00862 | 0.931 | > 10.2 | 0.878 | 4.21
